# Among all 260,000 compounds or so, about 890 (0.34%) were called active. The inconclusive results got no clear call from the source; some entries with a clear call stand among them for comparison. Calls follow the shape of the dose curve; as a rule, active = well fitted activation curve with a large enough effect; inconclusive = small, poorly fitted or top-dose-only effect; inactive = no such curve, though single readings can be large or run the other way. No potency is given beside an inconclusive call; the fits are too rough.
# Target: Pyruvate kinase PKM (Homo sapiens) (UniProt P14618)
# Assay: qHTS Assay for Activators of Human Muscle isoform 2 Pyruvate Kinase; also: nearly all actives have a fitted effect of over 55% in size
# Settings: purified PKM2, Kinase-Glo ATP luminescence; Potency: activation; activation: at 57.5 µM (top of the series), 0% is enzyme alone, no compound
# Outline: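 hPK-M2, >95% pure; 0.1 mM ADP / 0.5 mM PEP final; imidazole pH7.2 buffer w/ 7 mM MgCl2, 50 mM KCl; 1 h RT; Kinase-Glo lum. Intermediate enzyme activity for dual inhibitor/activator qHTS.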
# % is scaled to controls: 0 for no effect and ±100 for the full control effect; potency is read from the fitted curve at half-maximal effect; tags tell the direction and shape of the fitted curve.
# Chain of UniProt P14618 (P14618 whole entry, looked up, canonical isoform): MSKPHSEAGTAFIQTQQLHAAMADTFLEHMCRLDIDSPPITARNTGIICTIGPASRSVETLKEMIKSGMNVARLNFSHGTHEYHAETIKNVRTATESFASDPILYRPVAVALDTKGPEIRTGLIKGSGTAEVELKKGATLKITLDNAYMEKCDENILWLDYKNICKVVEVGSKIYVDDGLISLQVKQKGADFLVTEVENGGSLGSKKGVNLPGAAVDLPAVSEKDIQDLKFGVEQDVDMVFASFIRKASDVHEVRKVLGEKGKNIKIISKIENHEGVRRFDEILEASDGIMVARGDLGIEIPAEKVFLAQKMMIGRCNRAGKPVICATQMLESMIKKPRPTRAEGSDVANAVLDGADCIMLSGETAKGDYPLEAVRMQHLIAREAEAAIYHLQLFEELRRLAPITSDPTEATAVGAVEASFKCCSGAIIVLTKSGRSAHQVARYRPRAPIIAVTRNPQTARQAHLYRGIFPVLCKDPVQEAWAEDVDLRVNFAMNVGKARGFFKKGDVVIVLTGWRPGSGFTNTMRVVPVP
SMILES,activation,Potency
COc1cccc(-c2nn3c(-c4ccccn4)nnc3s2)c1,inactive: -2.74%,
NC(=O)COC(=O)CNC(=O)c1sc2ccccc2c1Cl,,"inconclusive [rising, single point]"
O=[N+]([O-])c1ccc(CNc2cccc(F)c2)s1,inactive: -1.78%,
O=C(Oc1ccccc1C(=O)Nc1ccccc1)c1ccccc1Br,inactive: 1.59%,
Cc1cccc(N2CCN(C(=O)c3cc4c(=O)n(C)c5ccccc5c4n3C)CC2C)c1 (configuration not stated),,"inconclusive [rising, partial curve]"
CCc1ccc(NC(=O)c2[nH]c(C)c(C(C)=O)c2C)cc1,,"inconclusive [rising, partial curve]"
CCOC(=O)c1c(C)n(C)c2cc(Br)c(O)c(O)c12,,"inconclusive [rising, single point]"
O=C(CSc1nnc(-c2ccc(Cl)s2)o1)N1CCCc2ccccc21,,"inconclusive [rising, single point]"
Cc1c(Cl)cccc1NC(=S)NC(=O)CCN1C(=O)c2ccccc2C1=O,inactive: 14.7%,
COc1ccc(N2CCN(c3nccs3)CC2)cc1,inactive: 0.443%,
Cc1ccc(NS(=O)(=O)c2ccc(/C=C/C(=O)O)cc2)cc1Cl,,"inconclusive [rising, single point]"
Cc1cc(NS(=O)(=O)c2ccc(NC(=O)c3cnc4sccn4c3=O)cc2)nc(C)n1,,"inconclusive [rising, single point]"
Cc1ccc2nc(SCC(=O)c3ccc4c(c3)NC(=O)CO4)[nH]c2c1,inactive: -4.92%,
CCc1ccc(NC(=O)NCC2CCN(c3ccc(OC)cc3)C2)cc1 (configuration not stated),inactive: 4.1%,
CC1(C)CC(=O)c2cnc(N3CCN(c4ccccc4)CC3)nc2C1,inactive: 4.18%,
CC(=O)N1CC=CC1(CC(C)C)C(=O)NCc1ccc(C)o1 (configuration not stated),,"inconclusive [rising, single point]"
O=S(=O)(c1ccccc1)c1nc(-c2ccco2)oc1NCc1cccnc1,,"inconclusive [rising, single point]"
Cc1cc(C)n2nc(C(=O)N/N=C/c3c4ccccc4cc4ccccc34)nc2n1,,"inconclusive [rising, partial curve]"
N#C/C(=C\c1ccc([N+](=O)[O-])o1)c1nc2ccccc2[nH]1,inactive: 10.9%,
NC(N)=NC1=NC(=O)C(Cc2ccccc2Cl)S1 (configuration not stated),,"inconclusive [rising, single point]"
Cc1ccc(S(=O)(=O)c2cc3ccccc3oc2=Nc2ccc3c(c2)OCO3)cc1,,"inconclusive [rising, single point]"
Cc1ccc(/C=N/N2CCN(Cc3ccc(Cl)cc3)CC2)o1,,"inconclusive [rising, partial curve]"

# From PubChem BioAssay AID1631 (National Center for Advancing Translational Sciences (NCATS), 2009)
